91 compounds from PubChem BioAssay AID360 (National Center for Advancing Translational Sciences (NCATS), 2006) can be followed below.

Screen size: about 48,000 compounds; about 550 (1.1%) were called active. Roughly 4% stayed inconclusive and do not appear here. Rule as the data show it: active = potency below about 15 µM; inconclusive = mostly about 16 µM to 33 µM; inactive = weaker than that. The list shows a part of the results.
Potency is read from the fitted curve at half-maximal effect.

This assay deals with Lysosomal acid glucosylceramidase (Homo sapiens) (UniProt P04062). Briefly: Glucocerebrosidase.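 Also: the screen sought inhibitors.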 Particulars: purified enzyme, resorufin glucoside fluorescence (screen aimed at inhibitors), 20 min. A digest of the protocol: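 Compounds titrated against 0.2 nM normal enzyme, 30 uM resorufin beta-D-glucopyranoside substrate, citrate/phosphate buffer with taurocholate and tween-20, pH 5.9. Reaction ran 20 min at room temperature; fluorescence (Ex 548/Em 600) gave AC50.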
UniProt P04062, sequence (P04062 whole entry, looked up): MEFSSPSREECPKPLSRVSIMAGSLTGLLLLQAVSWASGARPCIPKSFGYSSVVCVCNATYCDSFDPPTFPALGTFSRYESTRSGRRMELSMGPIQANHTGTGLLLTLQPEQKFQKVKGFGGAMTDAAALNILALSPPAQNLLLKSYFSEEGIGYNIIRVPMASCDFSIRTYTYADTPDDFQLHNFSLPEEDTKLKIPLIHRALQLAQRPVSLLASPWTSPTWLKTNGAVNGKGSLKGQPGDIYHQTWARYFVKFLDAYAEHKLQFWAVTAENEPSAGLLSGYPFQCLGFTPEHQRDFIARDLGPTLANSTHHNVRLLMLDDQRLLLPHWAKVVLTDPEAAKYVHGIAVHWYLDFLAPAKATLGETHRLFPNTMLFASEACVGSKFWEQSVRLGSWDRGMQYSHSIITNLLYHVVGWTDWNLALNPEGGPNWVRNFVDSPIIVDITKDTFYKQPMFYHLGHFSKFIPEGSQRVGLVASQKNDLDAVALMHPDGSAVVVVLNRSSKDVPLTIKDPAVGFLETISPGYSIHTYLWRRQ
For the compound `CCCCSc1nnc(-c2ccc(NC(=O)CC)cc2)n1C`, the Potency is inactive: > 76.9 µM. For the compound `CC(=O)N(Cc1cccnc1)Cc1cc2ccc(C)cc2[nH]c1=O`, the Potency is inactive: > 76.9 µM.

On to `CSc1nnnn1-c1ccc(C(=O)OCC(=O)N2CCOCC2)cc1`, for which the Potency is inactive: > 76.9 µM.

Consider `CC1Oc2ccccc2N(CC(=O)N2CCc3ccccc32)C1=O` (stereo unspecified), for which the Potency is inactive: > 76.9 µM. On to `CCn1c(=O)cc(OCC(=O)N2CCN(c3cccc(C(F)(F)F)c3)CC2)c2ccccc21`, for which the Potency was inactive: > 76.9 µM. With `COc1ccccc1C1NC(=O)NC(C)=C1C(C)=O` (stereo unspecified) the figure was inactive: > 76.9 µM. Regarding `CC(C)n1nc(C(=O)NCCc2ccc(S(N)(=O)=O)cc2)c2ccccc2c1=O`, the Potency is inactive: > 76.9 µM.

`Cc1nn(-c2ccccc2)c(Cl)c1C(=O)N1CCN(c2ncnc3c2cnn3-c2ccccc2)CC1`: the Potency is inactive: > 76.9 µM. Turning to `Brc1ccc(-c2nnc3sc(CN4CCN(c5ccccc5)CC4)cn23)cc1`, the Potency was inactive: > 76.9 µM. On to `CCN(Cc1cc2ccccc2[nH]c1=O)C(=O)c1cccnc1`, for which the Potency is inactive: > 76.9 µM. With `Cc1cccc(NC(=O)N2CCC(NC(=O)c3ccccc3C)CC2)c1` the figure was inactive: > 76.9 µM; with `O=C(NC1CC1)c1ccc(-c2nc3ccccc3s2)s1`, inactive: > 76.9 µM; with `Cc1ccc(C(=O)c2coc3ccc(OCC(=O)O)cc23)cc1`, inactive: > 76.9 µM. With `Cc1nnc(SCc2ccon2)n1-c1ccccc1`, the Potency was inactive: > 76.9 µM.

In the case of `Cn1c(NCC2CCCO2)nc2c1c(=O)n(Cc1ccccc1)c(=O)n2C` (stereo unspecified), the Potency was inactive: > 76.9 µM.

On to `COc1ccccc1NC(=O)CSc1nnnn1-c1ccc2c(c1)OCO2`, for which the Potency is inactive: > 76.9 µM. `c1ccc2c(c1)NC(CN1CCOCC1)CO2` (stereo unspecified): the Potency is inactive: > 76.9 µM.

Regarding `COc1cccc(N2C(=O)C3CCCN3C2c2ccc(F)cc2)c1` (stereo unspecified), the Potency is inactive: > 76.9 µM.

Take `Cc1cc(C(=O)CSc2nncs2)c(C)n1-c1ccc2c(c1)OCO2`: the Potency is inactive: > 76.9 µM. `CC(NC(=O)Cc1cccs1)c1ccc2c(c1)OCO2` (stereo unspecified): the Potency is inactive: > 76.9 µM. Take `O=C(c1cnn2c(C(F)F)cc(C3CC3)nc12)N1CCc2ccccc2C1`: the Potency was inactive: > 76.9 µM. Regarding `NC(=O)C1(N2CCCCC2)CCN(C(=O)CSc2nc3ccccc3[nH]2)CC1`, the Potency is inactive: > 76.9 µM.

As to `Cc1ccnc(SCCn2c(Br)nc3c2c(=O)n(C)c(=O)n3C)n1`, the Potency was inactive: > 76.9 µM. Consider `Cc1cc(-c2ccccc2)c2c3c(cn2n1)c(=O)n(C)c(=O)n3C`, for which the Potency is inactive: > 76.9 µM.

Turning to `CCOc1cc(-n2cnnn2)c(OCC)cc1NC(=O)c1cnccn1`, the Potency is inactive: > 76.9 µM.

`CCOC(=O)c1[nH]c(C)c(C(=O)NCCc2ccc(OC)cc2)c1C`: the Potency was inactive: > 76.9 µM. With `OC(Cn1ccnc1)c1ccc(Cl)cc1Cl` (stereo unspecified) the figure was inactive: > 76.9 µM; with `COCC(=O)N(C)C1(c2nnnn2CCOC(=O)Nc2cccc3ccccc23)CCCC1`, inactive: > 76.9 µM; with `CCCc1cc(=O)[nH]c(NCc2ccc(Cl)cc2)n1`, inactive: > 76.9 µM. Turning to `COC(=O)c1cc(C)sc1NC(=O)c1cccnc1`, the Potency is inactive: > 76.9 µM.

As to `O=C(C1CCN(S(=O)(=O)c2ccc(F)cc2)CC1)N1CC=C(c2ccccc2)CC1`, the Potency was inactive: > 76.9 µM. On to `CCCCC(=O)Nc1cc(C)c2c(=O)oc3ccccc3c2n1`, for which the Potency was inactive: > 76.9 µM. With `COC(C)(C)[C@]12CC(O)(c3ccccc3)ON1[C@H]1CCCCC1N2O` (stereo partly specified) the figure was inactive: > 76.9 µM; with `COc1ccc(NC(=O)c2cc(C(C)C)on2)cc1OC`, inactive: > 76.9 µM; with `CSc1ccc(S(=O)(=O)NC2CCCCCC2)cc1`, “inactive”. With `CCOC(=O)Cc1csc(NC(=O)c2csc3c2CCCC3)n1` the figure was inactive: > 76.9 µM; with `O=C(O)c1cc(-c2ccccc2)n(-c2ccccc2C(=O)O)n1`, inactive: > 76.9 µM. Consider `Cc1ccc(S(=O)(=O)n2nc(OC(=O)c3cccs3)cc2N)cc1`, for which the Potency was inactive: > 76.9 µM. With `CCCn1c(CCC(=O)O)ccc1-c1ccc(F)cc1` the figure was inactive: > 76.9 µM. With `O=S(=O)(c1ccccc1)N1CCN(c2ncnc3sc(-c4ccccc4)cc23)CC1` the figure was inactive: > 76.9 µM; with `O=C(O)c1ccc(COc2c(F)c(F)cc(F)c2F)o1`, inactive: > 76.9 µM.

Take `CN(C(=O)COc1ccccc1)c1nnc(-c2ccncc2)s1`: the Potency was inactive: > 76.9 µM. Consider `c1ccc(-n2nnc3cnccc32)cc1`, for which the Potency was inactive: > 76.9 µM. On to `Cc1ccc(NC(=O)c2nnn(-c3cc(C)cc(C)c3)c2N)cc1`, for which the Potency is inactive: > 76.9 µM.

As to `CC(NC(=O)Nc1ccccn1)N1C(=O)C2C3C=CC(C3)C2C1=O` (stereo unspecified), the Potency was inactive: > 76.9 µM. With `COc1ccc(CNc2nc3c(c(=O)n(Cc4ccc(Cl)cc4)c(=O)n3C)n2C)cc1`, the Potency was inactive: > 76.9 µM.

For `CCCCNC(=O)c1c(C)cc(=O)oc1C`, the Potency was inactive: > 76.9 µM. Turning to `CN(C)S(=O)(=O)c1cccc(C(=O)N2CCN(Cc3ccccc3)CC2)c1`, the Potency was inactive: > 76.9 µM. `COc1cc(NC(=O)c2cccs2)c(C(=O)OCC(=O)NCc2ccco2)cc1OC`: the Potency is inactive: > 76.9 µM. With `O=C(O)C1C2C=CC(C2)C1C(=O)Nc1ccc(C(=O)N2CCCCC2)c(Cl)c1` (stereo unspecified), the Potency is inactive: > 76.9 µM.

For the compound `CCOc1ccc(NC2=NCC(=O)N2CCc2ccccc2)cc1`, the Potency is inactive: > 76.9 µM. Regarding `Cc1ccc2c(c1)cc(CN(Cc1cccs1)C(=O)c1ccco1)c1nnnn12`, the Potency was inactive: > 76.9 µM. In the case of `O=C(Nc1cnn(Cc2ccc(F)cc2)c1)c1cc2nc(-c3ccco3)cc(C(F)(F)F)n2n1`, the Potency was inactive: > 76.9 µM. With `Cn1c(-c2ccc(F)cc2)cnc1SCC(=O)N1CCCCC1` the figure was inactive: > 76.9 µM; with `CC(C)CCNC(=O)C1CCN(c2nc3ccccc3o2)CC1`, inactive: > 76.9 µM. On to `COc1ccccc1CNC(=O)CCS(=O)(=O)c1ccc2c(c1)CCCN2C(C)=O`, for which the Potency is inactive: > 76.9 µM. In the case of `Clc1ccccc1Cn1nnc(-c2cccs2)n1`, the Potency is inactive: > 76.9 µM. Regarding `Cc1occc1C(=O)Nc1cccc(Cn2cccn2)c1`, the Potency is inactive: > 76.9 µM.

In the case of `c1ccc(CCn2nnnc2CN2CCCc3ccccc32)cc1`, the Potency is inactive: > 76.9 µM.

Turning to `Cc1ccc2c(CC(=O)NC3=NCCS3)coc2c1`, the Potency is inactive: > 76.9 µM. With `Cc1cc(C)cc(-n2nnc(C(=O)NCc3ccc4c(c3)OCO4)c2N)c1`, the Potency was inactive: > 76.9 µM. With `CCOC(=O)CNC(=O)CSc1nc(NCc2ccccc2)nc(N(C)C)n1` the figure was inactive: > 76.9 µM.

With `CCOC(=O)c1c(C)noc1CP(=O)(c1ccccc1)c1ccccc1`, the Potency was inactive: > 76.9 µM.

For the compound `O=C(CSc1nnc(-c2c[nH]c3ccccc23)o1)N1CCCCC1`, the Potency is inactive: > 76.9 µM. For the compound `CN1CCN(C(=O)c2cnn(-c3ccccc3)c2NC(=O)c2ccccc2F)CC1`, the Potency is inactive: > 76.9 µM. As to `OC(COCc1ccccc1)CN1CCCC1` (stereo unspecified), the Potency was inactive: > 76.9 µM. With `Cc1nn(Cc2ccccc2Cl)c(C)c1NC(=O)c1noc2c1CCCCC2`, the Potency is inactive: > 76.9 µM. With `COc1cccc(C2(O)CCN(C(=O)C3CC3)CC2)c1` the figure was inactive: > 76.9 µM. As for `Cc1c(NC(=O)c2ccccc2F)c(=O)n(-c2ccccc2)n1C`, the Potency was inactive: > 76.9 µM.

Regarding `CCOc1ccc(S(=O)(=O)N2CCC(C(N)=O)CC2)c2ccccc12`, the Potency is inactive: > 76.9 µM. `Cc1sc2nc(C(C)Sc3nnc(C)n3-c3ccccc3)[nH]c(=O)c2c1C` (stereo unspecified): the Potency is inactive: > 76.9 µM. For the compound `COc1cccc(NC(=O)CSc2nnc(-c3cccs3)n2C)c1`, the Potency was inactive: > 76.9 µM. For `COc1ccc(Cn2nnnc2C(c2ccncc2)N2CCOCC2)cc1` (stereo unspecified), the Potency is inactive: > 76.9 µM. With `Cc1cc(N2CCN(c3ccccn3)CC2)n2c(nc3ccccc32)c1C#N` the figure was inactive: > 76.9 µM.

Turning to `Cc1ccc(S(=O)(=O)N2CCC(C(=O)N[C@H](C(=O)N3CCN(C)CC3)C(C)C)CC2)cc1`, the Potency is inactive: > 76.9 µM. With `CCCN(CCO)Cc1cccc(Cl)c1` the figure was inactive: > 76.9 µM. Regarding `O=C(/C=N/O)NCc1ccncc1`, the Potency was inactive: > 76.9 µM. With `CCC(C)OC(=O)C1=C(C)NC2=C(C(=O)C(C(=O)OC)C(C)C2)C1c1ccc(N(C)C)cc1` (stereo unspecified) the figure was inactive: > 76.9 µM; with `O=c1ccc(=O)n2n1CC(O)C2`, inactive: > 76.9 µM; with `CCCC1=C(C(=O)OCC)C(c2ccc(N(C)C)cc2)n2ncnc2N1` (stereo unspecified), inactive: > 76.9 µM. In the case of `C=CCSc1nc(C)c(CC(=O)OCCCC)c(=O)[nH]1`, the Potency was inactive: > 76.9 µM. With `Cc1cccc(Nc2nc(NCc3ccco3)nc(N3CCOCC3)n2)c1`, the Potency was inactive: > 76.9 µM. With `O=C(c1ccco1)N1CCN(S(=O)(=O)c2ccc3c(c2)OCCO3)CC1` the figure was inactive: > 76.9 µM; with `CC(C)(C)c1cnnn1-c1ccc(-c2csc(N)n2)cc1`, “inactive”. Take `CCN1C(=O)/C(=C/N2CCc3ccccc32)SC1=S`: the Potency is inactive: > 76.9 µM.

Consider `NS(=O)(=O)c1ccc(CCNC(=O)COC(=O)C2CCCN2C(=O)c2cccs2)cc1` (stereo unspecified), for which the Potency is inactive: > 76.9 µM. Regarding `C=CCn1c(SCC(=O)Nc2ccc3c(c2)OCCO3)nnc1-c1ccccn1`, the Potency was inactive: > 76.9 µM. Regarding `CCOc1ccc(OCC)c(NC(=O)CSc2nc3ccccc3c(=O)n2C)c1`, the Potency was inactive: > 76.9 µM. For the compound `COC(=O)c1ccc(OC(=O)c2ccccn2)cc1`, the Potency was inactive: > 76.9 µM. For `COc1ccc(Nc2cc(C(=O)NCCCN3CCN(C)CC3)c3ccccc3n2)cc1OC`, the Potency is inactive: > 76.9 µM. As to `COc1cc(-c2nnc3n2N=C(c2ccccc2)CS3)cc(OC)c1OC`, the Potency is inactive: > 76.9 µM.
